Results reported in the supplement of paper PMC3334620.
Over roughly 33,000 sequences, “E-score (-0.5 to 0.5)” has its median near -0.016; the highest 2% begin near 0.32. The list shows a part of the results.

The sequences below were run against T1, Stp1 (UniProt B3LFK1) (assay: PBM E-score (8-mer binding enrichment) (E-score (-0.5 to 0.5)); higher = stronger / more preferred TF binding; most listed sequences are background and not binding sites). Settings: protein concentration: 200 nM; construct: GST-full length.
T1 sequence: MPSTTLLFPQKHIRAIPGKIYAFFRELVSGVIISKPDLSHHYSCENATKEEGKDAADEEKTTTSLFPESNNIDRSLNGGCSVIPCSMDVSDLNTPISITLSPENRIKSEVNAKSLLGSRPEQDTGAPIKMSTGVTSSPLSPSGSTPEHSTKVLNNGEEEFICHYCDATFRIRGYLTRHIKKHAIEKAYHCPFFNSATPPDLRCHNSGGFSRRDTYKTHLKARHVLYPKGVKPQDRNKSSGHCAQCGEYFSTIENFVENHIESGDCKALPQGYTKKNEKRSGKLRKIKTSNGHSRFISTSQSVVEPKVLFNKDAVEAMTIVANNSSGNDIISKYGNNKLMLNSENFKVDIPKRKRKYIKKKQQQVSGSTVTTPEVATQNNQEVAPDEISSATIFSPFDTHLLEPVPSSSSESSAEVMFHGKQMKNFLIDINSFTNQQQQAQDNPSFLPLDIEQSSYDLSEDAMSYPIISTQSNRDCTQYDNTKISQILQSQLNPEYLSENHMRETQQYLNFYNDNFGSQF
Experimental: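 Universal 'all 10-mer' protein binding microarrays (Agilent AMADID 015681) probed with GST-tagged S. cerevisiae TFs (full-length or DBD) made by in vitro transcription/translation (PURExpress), about 100-200 nM. Bound TF was detected with fluorescent anti-GST. Each ungapped 8-mer (which stands for itself and its reverse complement) is scored by the PBM enrichment score (E-score), a modified Wilcoxon-Mann-Whitney statistic from -0.5 to +0.5, computed with the Universal PBM Analysis Suite. Scale: above 0.35 generally sequence-specific binding.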

Sequence	PBM E-score
ATCAAAGG	0.00439
ATGAGACC	-0.148
CAAGGGCA	-0.00665
ACGCCATC	0.142
ACATGGTA	0.0943
AATTATCC	-0.00926
TACATTAA	0.2
AGATTTAG	0.136
CTCTTGTC	0.0264
GCGGGCCA	-0.167
ATGGCCAA	-0.182
GTGTAATA	0.0143
CTCGTTGC	0.188
CCATTATA	0.101
ATGGTTTA	0.0423
TGTGTTAA	0.0919
ACCCGAGG	-0.0899
AGCGAGGG	-0.245
AGTGCGAC	-0.0365
CGAAAGAA	-0.0748
TACTGGGA	-0.136
AACAGAAA	0.113
ACGATGGC	-0.00112
CGTCTTGA	0.109

Sequence	PBM E-score
CTATGACA	-0.0378
GCAGGAAC	-0.139
CATGCCGG	0.186
ATACATGC	0.0364
CGCGTTCA	0.22
GTACAACA	0.203
GTACACAA	0.0963
ATCGCGCG	0.235
ACCGAAGC	-0.104
ACGAAGGC	-0.134
ACGCCTCT	0.0123
CGCCGATA	0.245
CGAGCCTC	-0.073
CCGCAGGA	0.0329
GCCAGCCC	-0.231
CCATGGAC	-0.0829
CCGTAAAC	0.105
ACAGAAGT	0.0374
ATCGATCA	-0.128
TCACCTGA	-0.244
GATCATCA	-0.241
AGGCGACC	-0.0722
CTTGACAA	0.0969
GAGGCGAA	0.206

Sequence	PBM E-score
CGAGGGTC	-0.345
AATTTGCG	0.167
GCTGTACA	-0.094
GAACATTC	-0.0495
ATGTGGGA	-0.235
ACTGGAAA	-0.0371
CACTGGAA	-0.17
ATTCTTTC	0.0215
GAGCGAGA	0.16
AAGCTCGT	-0.174
GACAAGCA	0.0122
ACATTAGG	-0.189
GGCCTGAC	-0.165
CTCTCCTA	-0.0265
AACATACG	0.25
ATTTGCCG	0.335
CGAATGTC	-0.17
AGTGCTTG	-0.0109
AATGCCCG	0.0121
AAGCACCA	-0.279
ACCAATAG	-0.151
CCTCTGCC	-0.191
ACCTTACC	0.0147
CCGCTAGC	-0.325

Sequence	PBM E-score
TAGCAACA	0.112
GGACGCGA	-0.16
AGCTGTAT	-0.135
AACAGCGA	-0.106
ATGAACAA	0.17
AATAGGCA	0.27
GAGGCTAC	-0.155
CGAGTTTC	-0.0593
ACGGCGTG	0.455
AGTGGTTG	0.0881
GAAGGACC	-0.275
GAATAGCC	-0.037
CTTAGTAA	0.0528
GTTATGGA	0.233
TCTTAAAA	0.0254
AAAGGTCG	-0.326
CTTACGTC	-0.116
TCATTAAA	0.263
ACTGTAGG	0.188
ACGAAGGA	-0.0434
CACTCCGA	-0.0238
ACTCTACA	0.0306
